Results are given in words; binding and its absence hold for the method and conditions named. In cells and extracts the contact can be indirect. Some entries that bind do so weakly or less than the wild type. Where a sequence is shown, tags or fusion partners need not be part of it.
T1: EGFP-tagged full-length VPS18 (1–973) (human) (UniProt Q9P253)
T1 sequence: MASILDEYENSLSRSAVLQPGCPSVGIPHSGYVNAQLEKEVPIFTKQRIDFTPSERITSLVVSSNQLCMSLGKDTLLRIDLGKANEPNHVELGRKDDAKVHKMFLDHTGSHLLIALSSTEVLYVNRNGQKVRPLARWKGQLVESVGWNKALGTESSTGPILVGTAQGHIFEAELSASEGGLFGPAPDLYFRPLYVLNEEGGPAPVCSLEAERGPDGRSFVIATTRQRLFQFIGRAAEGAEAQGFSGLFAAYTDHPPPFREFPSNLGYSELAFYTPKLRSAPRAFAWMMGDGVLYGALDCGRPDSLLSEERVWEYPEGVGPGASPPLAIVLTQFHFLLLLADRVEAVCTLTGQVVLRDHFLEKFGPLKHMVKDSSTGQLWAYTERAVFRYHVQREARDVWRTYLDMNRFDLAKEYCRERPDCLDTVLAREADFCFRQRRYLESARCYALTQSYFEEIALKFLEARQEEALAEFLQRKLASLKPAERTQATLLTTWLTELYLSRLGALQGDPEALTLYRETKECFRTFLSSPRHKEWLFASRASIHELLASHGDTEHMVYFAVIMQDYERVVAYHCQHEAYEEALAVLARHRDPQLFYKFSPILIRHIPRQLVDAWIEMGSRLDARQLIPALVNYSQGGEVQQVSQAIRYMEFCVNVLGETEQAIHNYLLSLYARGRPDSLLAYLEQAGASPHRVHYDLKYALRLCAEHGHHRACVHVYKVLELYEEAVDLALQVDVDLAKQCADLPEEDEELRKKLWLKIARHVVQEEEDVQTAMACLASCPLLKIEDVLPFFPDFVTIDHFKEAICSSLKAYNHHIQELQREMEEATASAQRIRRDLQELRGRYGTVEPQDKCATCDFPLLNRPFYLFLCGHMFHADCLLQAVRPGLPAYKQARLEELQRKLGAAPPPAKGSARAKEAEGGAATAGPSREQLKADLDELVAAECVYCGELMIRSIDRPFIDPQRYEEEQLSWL

T2: EGFP-tagged VPS18 extended construct (residues 752–973) (human) (UniProt Q9P253)
T2 sequence: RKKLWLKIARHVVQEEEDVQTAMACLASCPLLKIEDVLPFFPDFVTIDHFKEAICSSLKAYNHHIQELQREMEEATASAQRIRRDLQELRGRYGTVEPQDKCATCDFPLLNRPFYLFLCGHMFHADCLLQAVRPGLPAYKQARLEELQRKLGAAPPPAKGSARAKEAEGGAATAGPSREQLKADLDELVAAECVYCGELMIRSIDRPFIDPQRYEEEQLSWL

T3: EGFP-tagged VPS18 RING construct (residues 842–973) (human) (UniProt Q9P253)
T3 sequence: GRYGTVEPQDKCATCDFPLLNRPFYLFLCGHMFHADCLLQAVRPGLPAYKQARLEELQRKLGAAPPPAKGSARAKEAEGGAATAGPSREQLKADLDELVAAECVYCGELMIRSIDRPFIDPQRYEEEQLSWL

T4: EGFP-tagged VPS18 N-terminal construct (residues 1–841) (human) (UniProt Q9P253)
T4 sequence: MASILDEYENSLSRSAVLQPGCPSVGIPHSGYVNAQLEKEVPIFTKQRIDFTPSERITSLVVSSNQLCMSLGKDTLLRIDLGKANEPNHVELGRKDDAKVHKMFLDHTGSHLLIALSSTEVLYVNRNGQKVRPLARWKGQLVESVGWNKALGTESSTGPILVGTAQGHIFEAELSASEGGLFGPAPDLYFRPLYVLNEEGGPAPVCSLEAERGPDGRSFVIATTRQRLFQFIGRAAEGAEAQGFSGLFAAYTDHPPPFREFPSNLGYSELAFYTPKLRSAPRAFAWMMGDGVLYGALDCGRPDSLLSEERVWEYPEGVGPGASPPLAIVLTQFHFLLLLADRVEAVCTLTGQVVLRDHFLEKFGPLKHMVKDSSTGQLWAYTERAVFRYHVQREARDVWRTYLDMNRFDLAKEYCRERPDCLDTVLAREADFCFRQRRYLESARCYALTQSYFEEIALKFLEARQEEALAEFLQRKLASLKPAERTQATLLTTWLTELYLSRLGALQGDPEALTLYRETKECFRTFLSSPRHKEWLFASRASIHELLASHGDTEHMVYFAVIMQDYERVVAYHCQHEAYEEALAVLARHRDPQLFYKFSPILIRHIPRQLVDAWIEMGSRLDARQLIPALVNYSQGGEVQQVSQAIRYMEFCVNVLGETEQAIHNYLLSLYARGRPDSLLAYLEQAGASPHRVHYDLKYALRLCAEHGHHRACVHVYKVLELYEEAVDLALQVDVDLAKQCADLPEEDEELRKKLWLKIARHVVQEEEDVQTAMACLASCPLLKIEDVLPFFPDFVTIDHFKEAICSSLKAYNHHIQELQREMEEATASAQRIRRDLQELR

T5: EGFP-tagged VPS8 RING long construct (human) (UniProt Q8N3P4)
T5 sequence: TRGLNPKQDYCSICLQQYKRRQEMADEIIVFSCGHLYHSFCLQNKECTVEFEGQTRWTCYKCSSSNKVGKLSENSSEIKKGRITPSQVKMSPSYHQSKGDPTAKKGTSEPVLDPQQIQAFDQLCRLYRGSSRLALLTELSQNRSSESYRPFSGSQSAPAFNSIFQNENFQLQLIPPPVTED

T6: EGFP-tagged full-length VPS41 (human) (UniProt P49754)
T6 sequence: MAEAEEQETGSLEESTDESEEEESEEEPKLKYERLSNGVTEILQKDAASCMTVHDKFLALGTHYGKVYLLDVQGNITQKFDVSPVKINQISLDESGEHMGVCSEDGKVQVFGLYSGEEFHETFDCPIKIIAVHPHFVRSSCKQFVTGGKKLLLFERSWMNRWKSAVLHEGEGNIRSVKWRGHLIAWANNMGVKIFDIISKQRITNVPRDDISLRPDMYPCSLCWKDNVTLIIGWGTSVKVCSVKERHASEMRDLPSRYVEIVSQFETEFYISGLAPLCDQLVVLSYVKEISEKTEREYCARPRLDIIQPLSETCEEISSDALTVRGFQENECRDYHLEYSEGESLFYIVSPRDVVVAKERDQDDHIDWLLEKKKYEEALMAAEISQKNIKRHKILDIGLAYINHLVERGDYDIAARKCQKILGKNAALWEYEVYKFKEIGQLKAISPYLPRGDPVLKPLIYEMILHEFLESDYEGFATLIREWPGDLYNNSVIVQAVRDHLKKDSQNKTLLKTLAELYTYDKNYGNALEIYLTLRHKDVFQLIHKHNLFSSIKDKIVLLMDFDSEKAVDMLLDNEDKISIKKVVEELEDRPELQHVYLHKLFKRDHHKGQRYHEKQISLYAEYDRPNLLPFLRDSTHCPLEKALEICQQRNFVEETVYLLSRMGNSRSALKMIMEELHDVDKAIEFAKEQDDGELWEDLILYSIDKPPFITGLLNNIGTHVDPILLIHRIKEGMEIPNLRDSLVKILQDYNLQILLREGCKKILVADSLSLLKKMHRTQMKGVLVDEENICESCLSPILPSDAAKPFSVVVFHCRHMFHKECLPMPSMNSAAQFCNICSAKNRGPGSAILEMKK

T7: EGFP-tagged VPS41 RING domain (residues 778–854) (human) (UniProt P49754)
T7 sequence: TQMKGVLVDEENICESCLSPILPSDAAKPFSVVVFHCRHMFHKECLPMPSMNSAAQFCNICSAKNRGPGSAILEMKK

T8: EGFP-tagged VPS8 RING short construct (human) (UniProt Q8N3P4)
T8 sequence: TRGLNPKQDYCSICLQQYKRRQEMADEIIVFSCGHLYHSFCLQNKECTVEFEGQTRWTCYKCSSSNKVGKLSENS

B1: endogenous VPS41 (protein, UniProt P49754 1-854)
chain: T6 sequence
B2: endogenous VPS18 (protein, UniProt Q9P253 1-973)
chain: T1 sequence

Tests used:
Assay in all cases: co-IP; HEK293T cells transfected with EGFP-tagged constructs; GFP-TRAP beads; lysis in 10 mM Tris-HCl (pH 7.5), 150 mM NaCl, 0.5 mM EDTA, 0.5% NP-40; immunoblot for endogenous subunits
[1] = target: T1, EGFP-tagged full-length VPS18 (1–973) (human)
[2] = target: T2, EGFP-tagged VPS18 extended construct (residues 752–973) (human)
[3] = target: T3, EGFP-tagged VPS18 RING construct (residues 842–973) (human)
[4] = target: T4, EGFP-tagged VPS18 N-terminal construct (residues 1–841) (human)
[5] = target: T5, EGFP-tagged VPS8 RING long construct (human)
[6] = target: T6, EGFP-tagged full-length VPS41 (human)
[7] = target: T7, EGFP-tagged VPS41 RING domain (residues 778–854) (human)
[8] = target: T8, EGFP-tagged VPS8 RING short construct (human)

Binder	binding [1]	binding [2]	binding [3]	binding [4]	binding [5]	binding [6]	binding [7]	binding [8]
B1	binds	binds	binds	binds weakly	–	–	–	–
B2	–	–	–	–	binds	binds	binds	no binding
